Screen size: about 410,000 compounds; about 5,000 (1.2%) were called active. The inconclusive results got no clear call from the source; some entries with a clear call stand among them for comparison. Calls follow the shape of the dose curve; as a rule, active = well fitted inhibition curve with a large enough effect; inconclusive = small, poorly fitted or top-dose-only effect; inactive = no such curve, though single readings can be large or run the other way. A potency beside an inconclusive call is a rough fit, not a confirmed value.
Assay: qHTS for Inhibitors of TGF-b; also: nearly all actives have a fitted effect of over 65% in size
Settings: HepG2 CAGA-GFP TGF-b/SMAD3 reporter, GFP fluorescence, 18 h, TGF-beta stimulated, 500 pg/mL final; series mostly up to 46.1 µM
Method in brief: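 Cell-based qHTS in HEPG2 carrying a CAGA-GFP Smad reporter; compounds added before 500 pg/mL final TGF-beta, 18 h incubation at 37 degrees C, GFP fluorescence quantified per cell by imaging cytometry.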
Potency is read from the fitted curve at half-maximal effect; tags tell the direction and shape of the fitted curve.

Compound | Potency
COc1cc(OC)c2nc(C)c3c(c2c1)N(c1ccc(O)cc1)CC3 | inconclusive: 12.6 µM [inhibitor, single point]
Cc1nc(NCc2cccnc2)c2c3c(sc2n1)CCCC3 | inactive
CN(C)S(=O)(=O)c1ccc(N2CCCC2)c(C(=O)Nc2nc(-c3ccc(F)cc3)cs2)c1 | inconclusive: 15.8 µM [inhibitor, partial curve, poor fit]
Cc1cc(-c2csc(N)n2)c(C)n1CCc1ccccc1 | inactive
COc1cccc(C2Nc3cccc4cccc(c34)N2)c1 | inconclusive: 3.55 µM [inhibitor, single point]
CC(=O)N1CCCc2cc(S(=O)(=O)N3CCCC(C(=O)N4CCN(c5cc(C)ccc5C)CC4)C3)ccc21 (stereo not given) | active: 12.6 µM
CCc1ccc(C2=NN(CCC(=O)NCCc3ccc(Cl)cc3)C(=O)CC2)cc1 | inconclusive: 12.6 µM [inhibitor, single point]
COc1cc(NC(=O)COc2ccccc2C)ccc1NC(=O)c1ccco1 | inactive
COc1cccc(C2=NNC(=NCc3ccccc3)SC2)c1 | inconclusive: 28.2 µM [inhibitor, single point]
CCc1cccc(NC(=O)CCCn2c(=O)[nH]c3ccsc3c2=O)c1 | inactive
CCOC(=O)c1cnc2ccc(OCC)cc2c1N(C)Cc1ccccc1 | inconclusive: 35.5 µM [inhibitor, single point]
Nc1nc(N)c2c(OCc3ccc(C(F)(F)F)cc3)cccc2n1 | inconclusive: 15.8 µM [inhibitor, single point]
COc1ccc(NC(=O)c2c(C)oc3ccc(O)c(CN4CCN(Cc5ccccc5)CC4)c23)cc1 | inconclusive: 35.5 µM [inhibitor, single point]
CC(=O)Nc1ccc(C(=O)OCC(=O)N(c2ccccc2)C2CCCCC2)cc1 | inactive
Cc1ccc(NC2=C(Cl)C(=O)OC2OC(=O)c2ccco2)c(C)c1 (stereo not given) | inactive
O=S1(=O)N=C(N/N=C/C=C/c2ccccc2)c2ccccc21 | inactive
COc1ccc(C(C(=O)NCc2ccccc2)N(C(=O)c2snc(C(N)=O)c2N)C2CCCC2)cc1 (stereo not given) | inconclusive: 5.62 µM [inhibitor, single point]
COc1cc(NC(=O)c2c(C)oc3ncnc(N4CCCCC4)c23)cc(OC)c1 | inconclusive: 5.62 µM [inhibitor, full curve, poor fit]
N/C(=N\c1nc2ccccc2o1)NC(=O)c1ccccc1 | inactive
Cc1nc(CS(=O)(=O)c2ccccc2)cc(Sc2ccc(Cl)cc2)n1 | inconclusive: 0.891 µM [inhibitor, full curve, poor fit]

From PubChem BioAssay AID588855 (National Center for Advancing Translational Sciences (NCATS), 2011)
